Numbering of substitutions follows the chain as printed. Names and notes keep the numbering of the source.
B1: cs14 (designed binder)
chain: IAAKHDKDQQAAFYEILHLPNLTEDQRNAFIQSLRDDPSVSLEILGEAKKLNDAQAPPWSHPQFEK
B2: cs14 G46C (designed binder)
chain: B1 chain with G46C
B3: cs14 E43C (designed binder)
chain: B1 chain with E43C
B4: cs27 (designed binder)
chain: B1 chain with H5F, K7E, D8A, D25E, I44V, K49Q, A54S, P58K
B5: cs27 G46C (designed binder)
chain: IAAKFDEAQQAAFYEILHLPNLTEEQRNAFIQSLRDDPSVSLEVLCEAQKLNDSQAPKWSHPQFEK
B6: cs26 (designed binder)
chain: B1 chain with K4Q, D25E, G46A, P58K
B7: cs26 A46C (designed binder)
chain: B1 chain with K4Q, D25E, G46C, P58K
B8: cs26 A46C (dimer) (designed binder)
chain: IAAQHDKDQQAAFYEILHLPNLTEEQRNAFIQSLRDDPSVSLEILCEAKKLNDAQAPKIAAQHDKDQQAAFYEILHLPNLTEEQRNAFIQSLRDDPSVSLEILCEAKKLNDAQAPKWSHPQFEK
B9: cs26 A46C (trimer) (designed binder)
chain: IAAQHDKDQQAAFYEILHLPNLTEEQRNAFIQSLRDDPSVSLEILCEAKKLNDAQAPKIAAQHDKDQQAAFYEILHLPNLTEEQRNAFIQSLRDDPSVSLEILCEAKKLNDAQAPKIAAQHDKDQQAAFYEILHLPNLTEEQRNAFIQSLRDDPSVSLEILCEAKKLNDAQAPKWSHPQFEK
B10: Staphylococcus aureus Protein A domain C (other)
chain: ADNKFNKEQQNAFYEILHLPNLTEEQRNGFIQSLKDDPSVSKEILAEAKKLNDAQAPKWSHPQFEK
notes: also called wildtype domain C; wildtype Protein A domain C
B11: IB14 (designed binder)
chain: B1 chain with I1P, A11S, N28S, R35K, L42K
B12: IB14 E43C (designed binder)
chain: B1 chain with I1P, A11S, N28S, R35K, L42K, E43C
B13: IB14 E47C (designed binder)
chain: B1 chain with I1P, A11S, N28S, R35K, L42K, E47C
B14: IB14 G46C (designed binder)
chain: B1 chain with I1P, A11S, N28S, R35K, L42K, G46C
B15: IB14 K50C (designed binder)
chain: B1 chain with I1P, A11S, N28S, R35K, L42K, K50C

Target: Natalizumab
Assay: SPR, Biacore 3000, CM5 chip, 25 C, Langmuir 1:1

| Binder | Kd [nM] |
| --- | --- |
| B1 | 2.51 |
| B2 | 3.38 |
| B3 | 0.302 |
| B4 | 2.54 |
| B5 | 0.302 |
| B6 | 5.81 |
| B7 | 3 |
| B8 | 1.86 |
| B9 | 1.98 |
| B10 | 3.95 |

Target: T1, human IgG1-Fc (human, UniProt P01857-1 100-330 = IgG part)
T1 construct: domain: Fc; also called IgG-Fc
Assay: SPR, Biacore 3000, CM5 chip, 25 C, Langmuir 1:1

| Binder | Kd [nM] |
| --- | --- |
| B11 | 1.28 |
| B12 | 45.5 |
| B13 | 48.8 |
| B14 | 72.9 |
| B15 | 42.8 |
| B1 | 6.48 |

Source: US20200238197A1 (REPLIGEN, published 2020)
